This is an account of results in PMC4336329 (PLoS ONE, 2015).

Hit rate of the full screen: of about 310,000 compounds, about 2,200 (0.71%) showed an effect of 50% or more. Effects have a minus sign here. This is one part of the list.

The target in the test is human ether-à-go-go-related gene (hERG) potassium channel (human, UniProt Q12809). Briefly: primary screen, population patch clamp on CHO cells stably expressing hERG.
Sequence of human ether-à-go-go-related gene (hERG) potassium channel (Q12809 whole entry, looked up): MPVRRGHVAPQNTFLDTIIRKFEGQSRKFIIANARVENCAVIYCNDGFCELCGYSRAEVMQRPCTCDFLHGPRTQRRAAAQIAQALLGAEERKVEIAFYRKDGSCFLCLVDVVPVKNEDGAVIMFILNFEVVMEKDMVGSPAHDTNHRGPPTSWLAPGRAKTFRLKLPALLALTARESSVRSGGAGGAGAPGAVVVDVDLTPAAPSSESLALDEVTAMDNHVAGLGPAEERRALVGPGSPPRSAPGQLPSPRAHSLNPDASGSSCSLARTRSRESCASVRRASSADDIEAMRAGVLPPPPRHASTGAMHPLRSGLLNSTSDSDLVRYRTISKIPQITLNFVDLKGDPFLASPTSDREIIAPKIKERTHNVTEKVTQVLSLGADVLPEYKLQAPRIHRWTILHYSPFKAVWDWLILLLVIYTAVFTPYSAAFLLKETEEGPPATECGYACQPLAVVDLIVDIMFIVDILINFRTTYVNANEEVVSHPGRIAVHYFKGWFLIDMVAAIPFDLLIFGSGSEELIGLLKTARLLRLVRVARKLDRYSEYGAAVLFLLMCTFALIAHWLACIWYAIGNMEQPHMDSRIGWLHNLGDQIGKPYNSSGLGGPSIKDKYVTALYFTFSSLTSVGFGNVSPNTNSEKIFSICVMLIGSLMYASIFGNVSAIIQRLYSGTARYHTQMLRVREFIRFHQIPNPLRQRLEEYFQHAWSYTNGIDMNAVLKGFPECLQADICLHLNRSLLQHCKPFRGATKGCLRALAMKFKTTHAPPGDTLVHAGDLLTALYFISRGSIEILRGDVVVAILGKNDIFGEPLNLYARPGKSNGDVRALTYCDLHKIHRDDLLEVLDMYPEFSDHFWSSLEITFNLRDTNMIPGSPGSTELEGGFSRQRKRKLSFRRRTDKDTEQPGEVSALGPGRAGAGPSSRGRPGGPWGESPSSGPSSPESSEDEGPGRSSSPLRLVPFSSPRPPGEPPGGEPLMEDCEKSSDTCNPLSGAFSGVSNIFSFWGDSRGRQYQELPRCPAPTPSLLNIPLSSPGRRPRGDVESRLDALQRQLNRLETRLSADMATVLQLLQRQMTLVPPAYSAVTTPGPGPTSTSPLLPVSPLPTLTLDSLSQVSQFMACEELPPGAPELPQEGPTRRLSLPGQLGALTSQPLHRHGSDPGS
As for `O=C(Cn1c(=O)oc2cc(S(=O)(=O)N3CCc4ccccc43)ccc21)NC1CCCC1`, the “hERG current change (%, negative = inhibition) at 1uM” value was 7.19%.
The figure for `CNC(=O)CSc1nnc(C(C)C)n1C` is -4.95%; for `O=C(Cn1c(C(F)(F)F)nc2ccccc21)c1ccccc1` it is 2.92%; for `CCCCCCCNC(=O)C1(CC2CC(c3ccc(Cl)cc3)=NO2)CCN(C(=O)C2CCCC2)CC1` (centres unmarked) it is -1.93%.
The result for `CCOC(=O)c1ccc(/C=C2/C=C(c3ccccc3)N(c3ccc(Cl)c(C(=O)O)c3)C2=O)cc1` reads 4.2%.
The figure for `O=C(c1ccccc1)C(Cn1cncn1)C(Sc1ccccc1)c1ccccc1` (centres unmarked) is 8.96%; for `O=C(NCCC(=O)N1CCOCCOCCOCCOCC1)OCc1ccccc1` it is 7.45%; for `Cn1cccc1C(=O)NNC(=O)c1ccccc1Br` it is 6.21%.
As for `O=C(Nc1nc(=O)c2ccccc2s1)c1ccc(Cl)cc1`, the “hERG current change (%, negative = inhibition) at 1uM” value is reported as 1.03%.
The figure for `CCN(CC(=O)Nc1ccccc1C(F)(F)F)C(=O)c1ccc2[nH]c3c(c2c1)CC(C)CC3` (centres unmarked) is 5.83%; for `CC1=C(C(=O)N2CCCC(N3CCN(c4ccccc4C)CC3)C2)OCCO1` (centres unmarked) it is 8.7%; for `Cc1ccc(Cn2nc(C)c(NC(=O)CCCn3nc([N+](=O)[O-])c(Cl)c3C)c2C)cc1` it is -19.8%.
The result for `CCOC(=O)Cc1csc(NC(=S)NC(=O)c2cc(OC)c(OC)c(OC)c2)n1` reads 7.63%; that for `COc1ccc(C(C(=O)NC2CCCCC2)N(C(=O)CCl)c2cccc(Cl)c2)cc1` (centres unmarked), 10.5%.
In the case of `CCc1nc(SCc2ccccc2C)n[nH]1`, the “hERG current change (%, negative = inhibition) at 1uM” value worked out at 20.8%.
The result for `CCn1cc(S(=O)(=O)NCCc2ccc(OC)c(OC)c2)cn1` reads -33.5%.
The figure for `CCN(CC)C(=S)SCC(=O)NC12CC3CC(CC(C3)C1)C2` is 9.3%; for `O=C1C(=O)N(C/C=C/c2ccccc2)c2ccccc21` it is 10.4%.
The figure for `CC1CCN(C(=O)Cn2c(=O)n(-c3ccc(F)cc3)c(=O)c3sccc32)CC1` is -6.41%; for `CCOc1c(C)cc(-c2ncccc2O)cc1C.Cl` it is 0.307%.
As for `Cc1cccc(N(C(=O)Cn2nnc3ccccc32)C(C(=O)NC(C)(C)C)c2ccsc2)c1` (centres unmarked), the “hERG current change (%, negative = inhibition) at 1uM” value was found to be 6.95%.
On to `Nc1ccccc1SCc1ccccc1`, for which the “hERG current change (%, negative = inhibition) at 1uM” value is 8.05%.
The figure for `NS(=O)(=O)c1cccc(NC(=O)Cn2cc(C(F)(F)F)cc(Cl)c2=O)c1` is 9.47%; for `O=C(O)C1CCCN1C(=O)c1cncc(Br)c1` (centres unmarked) it is 11%; for `Cc1nn(-c2ccccc2)c2[nH]c(=O)c(CNc3ccc(N4CCOCC4)cc3)cc12` it is 9.72%.
Regarding `COc1ccc(NC(=O)C2=NN(c3ccccc3)C(=O)CC2)cn1`, the “hERG current change (%, negative = inhibition) at 1uM” value was -4.49%.
The result for `COc1ccc(-n2nnnc2/C=C\Nc2ccc(C)cc2)cc1` reads 13.7%; that for `COc1ccccc1C(=O)NCC(=O)NCCSc1ccc(Br)cc1`, 16.7%.
Turning to `CCCc1cc(=O)[nH]c(SCC(=O)N(C)CC(=O)Nc2ccc(F)cc2)n1`, the “hERG current change (%, negative = inhibition) at 1uM” value is given as 16.2%.
The result for `O=C(CCCc1nc(-c2ccccc2)no1)NCc1cccnc1` reads 2.98%.
The figure for `COc1cc2ccnc(Cc3cccc(OC)c3OC)c2cc1OC.Cl` is 9.51%; for `CCOC(=O)C1=C(O)/C(=C\c2ccc(O)c(OCC)c2)N=C1C` it is 8%; for `CCCCc1cc(=O)oc2cc(OCC(=O)N3CCc4ccccc43)ccc12` it is 11%.
The figure for `Br.N#CCC(=O)NN1Cc2ccccc2C1=N` is 6.7%; for `COc1cc2c(cc1NC(=O)CCC(=O)O)oc1ccccc12` it is 13%; for `Cc1ccc(NC(=O)/C(=C\c2cccc([N+](=O)[O-])c2)NC(=O)c2cccs2)cc1` it is 4.59%.
For `COc1ccc(NC(=O)NN2CCN(C)CC2)cc1`, the “hERG current change (%, negative = inhibition) at 1uM” value came out at 16.9%.
In the case of `COc1ccc(CNCCc2ccc(Cl)cc2Cl)cc1`, the “hERG current change (%, negative = inhibition) at 1uM” value is listed as 13.2%.
The result for `C/C(Cn1cnc([N+](=O)[O-])n1)=N/NC(=O)COc1c(Cl)cc(Cl)cc1Cl` reads -6.47%; that for `CCC(=O)NC(=S)Nc1ccc(Cl)cn1`, 11.3%.
The figure for `CC(C)(C)c1ccc(C(=O)Nc2ccc(S(N)(=O)=O)cc2)cc1` is 13.9%.
With `COc1ccc(C(=O)N(CC2CCCO2)C(C(=O)NC2CCCC2)c2ccc(Cl)cc2)cc1OC` (centres unmarked), the “hERG current change (%, negative = inhibition) at 1uM” value is reported as 4.89%.
`COc1cc(/C=C2/S/C(=N/S(=O)(=O)c3ccccc3)NC2=O)c([N+](=O)[O-])cc1OC`: the “hERG current change (%, negative = inhibition) at 1uM” value came out at 11.6%.
The figure for `CCOc1ccc(C(=O)NCC(=O)OC(C)C(=O)NCc2ccco2)cc1OCC` (centres unmarked) is 6.82%.
For `O=C(COc1ccc(Cl)cc1)Nc1cc(S(=O)(=O)N2CCCCC2)ccc1N1CCCCC1`, the “hERG current change (%, negative = inhibition) at 1uM” value worked out at 13.9%.
Turning to `COCCOC(=O)C1=C(C)NC(=O)NC1c1ccc(Cl)cc1` (centres unmarked), the “hERG current change (%, negative = inhibition) at 1uM” value is on record as 2.6%.
The result for `Cc1c(Cl)c([N+](=O)[O-])nn1CC(=O)Nc1c(C)n(C)n(-c2ccccc2)c1=O` reads 4.72%; that for `CN(C(=O)OC(C)(C)C)c1ccc(-c2nc3ccccc3s2)cc1`, 28.1%.
The figure for `COc1cccc(NC(=O)Nc2ccc(Br)cn2)c1` is 12.5%; for `CN1CCN(c2ccc([N+](=O)[O-])cc2C(=O)N2CCCCC2)CC1` it is 0.394%.
The result for `Cc1cc(C)c(NC(=O)CN2CCC(NC(=O)NC3CCCCC3)CC2)c(C)c1` reads 8.8%.
Regarding `Cc1cc(C(=O)CCC(=O)N2CCN(c3ccccc3)CC2)c(C)s1`, the “hERG current change (%, negative = inhibition) at 1uM” value is 5.33%.
For the compound `COc1ccc(OC)c(S(=O)(=O)n2cnc3ccccc32)c1`, the “hERG current change (%, negative = inhibition) at 1uM” value was found to be 8.57%.
The figure for `CCC(=O)Oc1ccc(C/C(=N\O)c2ccc(O)cc2O)o1` is 4.36%; for `COc1cc2ncnc(NCc3ccc(C)cc3)c2cc1OC` it is 10.3%.
Turning to `O=C(NCCS(=O)(=O)N1CCN(c2cccc(Cl)c2)CC1)C1CCCC1`, the “hERG current change (%, negative = inhibition) at 1uM” value is reported as -23.9%.
The result for `COc1cc([N+](=O)[O-])cc2sc(NC(=O)c3c(F)cccc3F)nc12` reads 0.451%; that for `CCc1ccc(CNC(=O)C(=O)NCC2CCCO2)cc1` (centres unmarked), 9.88%; that for `COC(=O)CSc1ncnc2c1cnn2-c1ccc(C)cc1C`, 4.7%.
For the compound `COc1ccc(CC(=O)Nc2ccc3c(c2)CCC3)cc1OC`, the “hERG current change (%, negative = inhibition) at 1uM” value is given as -4.34%.
As to `O=C(c1cc(-c2cccs2)on1)N1CCCc2ccccc21`, the “hERG current change (%, negative = inhibition) at 1uM” value stood at 11.5%.
The result for `COc1ccc(S(=O)(=O)NCC(=O)N(CC(=O)NCc2ccco2)C2CCCC2)cc1` reads 12.2%; that for `COc1ccc(C2CC(=O)Nc3cc(OC)c(OC)cc32)cc1Br` (centres unmarked), 12.9%; that for `Cc1cccc(C)c1OC(=O)Cc1ccccc1[N+](=O)[O-]`, 3.17%.
The figure for `CCOc1ccc(NC(=S)N(CCCN2CCOCC2)Cc2cn(C)c3ccccc23)cc1` is 7%.
The result for `Cc1ccc(NC(=O)CCSc2nc(C)cc(C)n2)cc1` reads -0.237%; that for `COc1cccc(-c2sc3ccc(OC)cc3c2-c2ccc(C(N)=O)cc2)c1`, 19%.
Regarding `CCSc1nnc(Cn2c(=O)sc3ccccc32)n1-c1ccc(OC)cc1`, the “hERG current change (%, negative = inhibition) at 1uM” value stood at 3.69%.
The figure for `CN1/C(=C\C=C2/SC(=S)NC2=O)C(C)(C)c2ccccc21` is 9.8%; for `CCC1CCCCN1C(=O)COc1ccc2c3c(c(=O)oc2c1)CCC3` (centres unmarked) it is 5.08%.
For the compound `CCC1CCCCN1CCCNC(=O)c1ccc(N2CCCC2=O)cc1` (centres unmarked), the “hERG current change (%, negative = inhibition) at 1uM” value was 14.4%.
With `Cc1cccc(-c2n[nH]c(=S)n2/N=C/c2ccco2)c1`, the “hERG current change (%, negative = inhibition) at 1uM” value turned out to be 13.3%.
`CCOC(=O)c1nn(-c2ccccc2F)c2nc(-c3ccco3)c(C#N)c(=O)n12`: the “hERG current change (%, negative = inhibition) at 1uM” value is given as 16.7%.
For the compound `O=c1c2cccc(Cl)c2nc2n1Cc1ccccc1-2`, the “hERG current change (%, negative = inhibition) at 1uM” value came out at 12.7%.
The figure for `Cc1cc(C)c(C(=O)COC(=O)c2c(C)noc2C)cc1C` is -4.15%; for `CCOc1ccc(S(=O)(=O)NCc2ccccc2Cl)cc1C(N)=O` it is 18.2%; for `CC1CCN(S(=O)(=O)N2CCC(C(=O)O)CC2)CC1` it is 9.96%.
The figure for `CCN(CC)C(=S)SCC(=O)c1ccccc1` is 8.8%.
The figure for `Cc1cccc(NS(=O)(=O)c2cc3c4c(c2)CCN4C(=O)CC3)c1C` is 8.41%; for `C/C(=N\NC(=O)Cn1ccc(C(F)(F)F)n1)c1ccc(N2CCOCC2)cc1` it is 13.9%.
For the compound `C=CCn1c(O)c2ccc(C(=O)N=NC(=O)COc3ccccc3F)cc2c1O`, the “hERG current change (%, negative = inhibition) at 1uM” value is 15.7%.
The result for `CC(OC(=O)CC(NC(=O)c1ccccc1Cl)c1ccccc1)C(=O)Nc1cccc(Cl)c1Cl` (centres unmarked) reads -0.371%; that for `CCNc1ccc(S(=O)(=O)C(F)(F)F)cc1NC(=O)C12CCC(CC1)C2`, 13.9%; that for `O=C(CCC(=O)Nc1ccccc1)N/N=C/c1ccc2c(c1)OCO2`, 10.1%.
For the compound `CC(OC(=O)c1nsc(Cl)c1Cl)C(=O)NCCc1ccccc1` (centres unmarked), the “hERG current change (%, negative = inhibition) at 1uM” value amounted to 0.395%.
The figure for `CCOc1cc(/C=N\NC(N)=O)cc(Br)c1OC(C)C` is -11.6%.
The result for `O=C(NCCc1ccccn1)c1cc(-c2ccccc2Cl)nc2ccccc12` reads 6.1%; that for `Cl.c1coc(CN(Cc2cccs2)Cc2nnnn2C2CCCCC2)c1`, 7.27%.
The result for `CN1C/C(=C\c2ccc(N3CCOCC3)cc2)C(=O)/C(=C/c2ccc(N3CCOCC3)cc2)C1` reads 3.12%.
